# Test results: the supplement of paper PMC3334620
# Over roughly 33,000 sequences, “E-score (-0.5 to 0.5)” has its median near -0.041; the highest 2% begin near 0.37. Some of the results follow.
# Target: T1, Ecm22 (UniProt Q05958)
# T1 sequence: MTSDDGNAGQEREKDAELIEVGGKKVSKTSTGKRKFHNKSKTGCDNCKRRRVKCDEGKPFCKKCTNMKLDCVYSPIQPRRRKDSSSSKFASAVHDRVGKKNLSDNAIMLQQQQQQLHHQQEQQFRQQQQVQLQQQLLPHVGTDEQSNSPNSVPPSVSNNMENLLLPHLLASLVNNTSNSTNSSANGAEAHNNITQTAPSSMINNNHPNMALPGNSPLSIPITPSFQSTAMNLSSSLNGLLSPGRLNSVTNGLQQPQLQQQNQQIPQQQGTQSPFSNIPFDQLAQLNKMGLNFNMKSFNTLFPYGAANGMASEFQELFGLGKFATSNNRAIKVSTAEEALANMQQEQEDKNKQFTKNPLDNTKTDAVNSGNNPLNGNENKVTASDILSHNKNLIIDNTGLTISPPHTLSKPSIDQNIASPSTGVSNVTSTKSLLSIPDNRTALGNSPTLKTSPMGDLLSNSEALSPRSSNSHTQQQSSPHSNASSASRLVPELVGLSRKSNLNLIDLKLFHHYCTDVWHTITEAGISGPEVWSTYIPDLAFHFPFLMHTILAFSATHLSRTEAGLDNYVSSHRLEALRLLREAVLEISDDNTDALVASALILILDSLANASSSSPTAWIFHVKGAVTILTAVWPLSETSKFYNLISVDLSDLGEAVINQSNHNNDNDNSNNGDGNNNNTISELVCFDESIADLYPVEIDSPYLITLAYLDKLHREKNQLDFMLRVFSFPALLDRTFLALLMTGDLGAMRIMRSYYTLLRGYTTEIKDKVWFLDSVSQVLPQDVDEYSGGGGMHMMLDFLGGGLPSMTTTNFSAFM
# Assay: PBM E-score (8-mer binding enrichment) (E-score (-0.5 to 0.5)); higher = stronger / more preferred TF binding; most listed sequences are background and not binding sites
# Conditions: protein concentration: 200 nM; construct: GST-full length
# Procedure, shortened: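 Using PURExpress in vitro transcription/translation, GST-tagged yeast transcription factors were made in full-length or DNA-binding-domain form. These were applied at about 100-200 nM to double-stranded universal all-10-mer Agilent arrays, and bound protein was detected with fluorescent anti-GST. Scans were normalised with masliner before the Universal PBM Analysis Suite assigned E-scores to ungapped eight-base words pooled with their reverse complements.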
row,Sequence,PBM E-score
1,AAAACGCC,-0.0729
2,ACCTCTTC,-0.064
3,GCTATCTA,-0.157
4,CTGTTGCA,-0.11
5,AGACTGGC,-0.228
6,AAAACACT,0.00989
7,CTTCACTC,0.00687
8,GGCTTACC,-0.0958
9,CGTTAAGC,0.4
10,CGGTATAA,0.161
11,AAGCCGTG,-0.126
12,CGGGTTTC,0.0663
13,AACAGATT,-0.164
14,CGGTTAAC,0.228
15,ATATCCTG,0.0485
16,AGGCCTAC,-0.0913
17,GACCTCAC,-0.139
18,CATCGTTA,0.259
19,TCCCAGCA,-0.0198
20,ATTCATTA,0.0723
21,CATTGTGG,-0.185
22,ATGGGACA,-0.171

row,Sequence,PBM E-score
1,GCACGGCC,-0.127
2,ACATTAGC,0.0206
3,ACTATGAT,-0.107
4,ACTTACTC,-0.245
5,CATTAGAA,0.0854
6,CGCCCGTA,0.306
7,CGCCTCGC,0.21
8,AGCTTGTC,0.00858
9,ACCACGAG,0.0514
10,ATTTATAG,-0.0984
11,AATGATCG,0.18
12,CCACCCCA,-0.236
13,ATATTACG,0.296
14,CGGACGCA,0.046
15,CATAAGTA,-0.0909
16,ACACACCT,-0.069
17,CGACCGCG,0.183
18,GAAATAAA,0.146
19,CGCCTGAG,-0.235
20,CAAACTGA,-0.104
21,AATGGTAA,-0.0535
22,GAGACATA,-0.0349

row,Sequence,PBM E-score
1,CGATCACA,0.0902
2,CCCTAATA,-0.194
3,GCTGTTGA,-0.115
4,GCATTCAA,0.119
5,ACGATGAG,0.276
6,GTGTGCAA,0.0745
7,CTACAGCA,-0.136
8,CAATGACA,-0.156
9,GAGACCAA,-0.0778
10,AATTAAGA,-0.202
11,GATCTTCA,-0.0293
12,ACTAAAAA,0.0191
13,GCCTTTTA,-0.0709
14,ACTCCCAA,-0.0881
15,CTCGAAAG,0.096
16,CGTTCTAG,0.23
17,CTAGACAG,-0.189
18,ACTAGTAC,0.0206
19,AGGGCAGG,-0.132
20,CGGGAGGA,0.0611
21,GATGGCGA,-0.00405
22,AGAATACA,0.1

row,Sequence,PBM E-score
1,GTAGACCA,-0.144
2,AATATCGT,0.34
3,TGCTAACA,-0.0691
4,ATTGGATA,-0.127
5,CGTTTCAA,0.273
6,ACCTGGCA,-0.203
7,ATCTTATG,-0.187
8,ACTGGGTA,0.0533
9,AAATTTCA,-0.309
10,TACCACTA,-0.0337
11,AAGAAACA,-0.104
12,ACCAGTAT,0.018
13,GGGCACCC,-0.189
14,ATCAAATC,-0.0388
15,CAGGACAG,-0.0508
16,AATTGAGA,0.0711
17,CCGATTAC,0.0999
18,GAGGCCAA,-0.00374
19,CATGAAAC,0.0812
20,ATCTGTAC,0.19
21,ACGGCGAA,0.225
22,TACGTCCA,0.00582

row,Sequence,PBM E-score
1,GTCGACGA,-0.0129
2,CCCTGGTA,-0.183
3,CAACCTAA,-0.0472
4,GAAAGGCA,-0.124
5,GGAGTGGA,-0.032
6,CTGGTGCC,-0.276
7,ATACCATA,0.134
8,TGGACGAA,-0.0106
9,CGTTGAGC,0.0667
10,ACGCCCGT,0.231
11,CGACACCG,0.147
12,AGCTATGG,-0.116
13,CATTAAGG,-0.121
14,AAATAACT,0.0821
15,GGACAGTA,0.0902
16,CTGCTTTA,-0.0994
17,CACCTGAA,0.00509
18,CACCTATC,-0.031
19,TCGGTTCA,0.194
20,CTACCGGA,-0.297
21,CGGACTTC,-0.014
22,TAAAATAA,-0.0272
